PubChem BioAssay AID485313 (National Center for Advancing Translational Sciences (NCATS), 2010)
Hit rate of the full screen: of about 320,000 compounds, about 7,600 (2.4%) were called active. Inconclusive results, whose numbers are uncertain, are shown with a selection of clear calls. Calls follow the shape of the dose curve; as a rule, active = well fitted activation curve with a large enough effect; inconclusive = small, poorly fitted or top-dose-only effect; inactive = no such curve, though single readings can be large or run the other way. Potencies of inconclusive entries are left out as doubtful fits.

Experiment: qHTS Assay for NPC1 Promoter Activators; also: nearly all actives have a fitted effect of over 60% in size;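 as to activation: reporter is driven by a mutant NPC1 promoter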
Conditions: Huh7 NPC1 promoter luciferase reporter, 24 h; series mostly up to 9.22 µM
How it was run: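 Huh7 cells stably carrying NPC1 promoter–luciferase, plated in Opti-MEM with 10% FBS for 2 h, were exposed to compound in DMSO for 24 h at 37 °C; luciferase reagent was added for 10 min and luminescence read.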
Potency is read from the fitted curve at half-maximal effect; tags tell the direction and shape of the fitted curve.

Q: Which Potency does the source give for `CN(C)c1nc2ccc(OCCN3CCCCC3)cc2s1` here?
A: Its Potency is inconclusive [activator, single point].

Q: For `Cc1cc(C)c2c(=O)n(-c3ccccc3)[nH]c2n1`, which Potency is on record?
A: Its Potency is inconclusive [activator, partial curve].

Q: With `CC(C)CC(=O)Nc1ccc(-c2cn3cccnc3n2)cc1` as the molecule, how does the Potency read?
A: Its Potency is inconclusive [activator, single point].

Q: Which Potency does the source give for `CN(C)C=NC(=O)c1cc(C(=O)c2ccc(C(C)(C)C)cc2)c[nH]1` here?
A: Its Potency is active: 1.12 µM.

Q: Which Potency does the source give for `COc1ccc(C)cc1-n1nnnc1SCc1nc2ccccc2s1` here?
A: The Potency was inconclusive [activator, single point].

Q: With `CCOc1ccccc1-c1nnc(CS(=O)(=O)c2ccccc2)o1` as the molecule, how does the Potency read?
A: The Potency was inconclusive [activator, partial curve].

Q: For `CCSc1nnc(NC(=O)c2ccc3ccccc3n2)s1`, which Potency is on record?
A: The Potency was inconclusive [activator, partial curve].

Q: With `COc1cc(C2C(C#N)=C(N)Oc3n[nH]c(-c4cccnc4)c32)cc(Br)c1O` (stereo not drawn) as the molecule, how does the Potency read?
A: The Potency was “inactive”.

Q: Which Potency does the source give for `CC1CCCC(NC(=O)c2ccc3c(c2)OCCO3)C1C` (stereo not drawn) here?
A: The Potency was active: 3.98 µM.

Q: With `Cn1c(SCc2ccccc2F)nnc1-c1cnccn1` as the molecule, how does the Potency read?
A: Its Potency is inconclusive [activator, partial curve].

Q: With `CC(C)n1c(/C=C/c2ccccc2)nc2ccccc21` as the molecule, how does the Potency read?
A: Its Potency is inconclusive [activator, single point].

Q: With `O=C(O)c1ccc(N/N=C/c2ccc(OC(=O)c3ccccc3Cl)cc2)cc1` as the molecule, how does the Potency read?
A: The Potency was inconclusive [activator, full curve].

Q: With `CC(C)(C)c1ccc(OCC(=O)N2CCCCCC2)c(Br)c1` as the molecule, how does the Potency read?
A: Its Potency is inconclusive [activator, single point].

Q: With `COc1ccc2nc(SCC(=O)Nc3cc(C)on3)c(C#N)cc2c1` as the molecule, how does the Potency read?
A: Its Potency is inconclusive [activator, partial curve].

Q: Which Potency does the source give for `Cc1cc(C)nc(SCc2cnc(C)nc2N)n1` here?
A: Its Potency is “inactive”.

Q: With `COc1ccc(-c2nc(C#N)c(NCc3ccco3)o2)cc1` as the molecule, how does the Potency read?
A: Its Potency is inconclusive [activator, single point].

Q: Which Potency does the source give for `O=C(Nc1cccc(O)c1)c1ccc(NC(=O)C2CCCO2)cc1` (stereo not drawn) here?
A: Its Potency is inconclusive [activator, single point].

Q: For `CCCCOc1ccc(-c2cnc3ccccc3n2)cc1`, which Potency is on record?
A: The Potency was active: 0.398 µM.

Q: For `CC(O)CNc1nc2sc3c(c2c(=O)n1Cc1ccco1)CCCCC3` (stereo not drawn), which Potency is on record?
A: Its Potency is inconclusive [activator, single point].

Q: For `CC(C)c1ccc(/C=C2\SC(=O)N(CC(=O)NCCCn3ccnc3)C2=O)cc1`, which Potency is on record?
A: Its Potency is inconclusive [activator, single point].

Q: For `Nc1ncccc1OCc1ccc(Br)cc1`, which Potency is on record?
A: The Potency was inconclusive [activator, partial curve].

Q: With `OC(CCc1cccc(Cl)c1)c1cccs1` (stereo not drawn) as the molecule, how does the Potency read?
A: Its Potency is inconclusive [activator, partial curve].

Q: For `CC1CCc2c(nc3sc4c(c3c2N)CCCC4)C1` (stereo not drawn), which Potency is on record?
A: Its Potency is inconclusive [activator, partial curve].

Q: For `CC(C)Cc1nc2oc3c(NCC(C)O)ncnc3c2c2c1CCCC2` (stereo not drawn), which Potency is on record?
A: Its Potency is “inactive”.

Q: Which Potency does the source give for `NC(=O)C1CCCN(S(=O)(=O)c2ccc3ccccc3c2)C1` (stereo not drawn) here?
A: The Potency was “inactive”.

Q: With `COc1ccccc1CN(C(=O)CNC(=O)c1ccco1)C(C(=O)NCC1CCCO1)c1ccccc1` (stereo not drawn) as the molecule, how does the Potency read?
A: Its Potency is “inactive”.

Q: With `Cc1cccc(-n2cnc3cc(C(=O)N4CCCCC4)ccc32)c1` as the molecule, how does the Potency read?
A: The Potency was inconclusive [activator, single point].

Q: Which Potency does the source give for `Cc1ccc(NC(=O)CC2Oc3ccc(C)cc3NC2=O)c(C)c1` (stereo not drawn) here?
A: The Potency was “inactive”.

Q: Which Potency does the source give for `O=C1c2ccccc2C(=O)N1CCSC(=S)N1CCOCC1` here?
A: The Potency was inconclusive [activator, partial curve].

Q: Which Potency does the source give for `CC(=O)Nc1ccc(NC(=O)CC2(CC(=O)N3CCOCC3)CCCC2)cc1` here?
A: Its Potency is “inactive”.

Q: Which Potency does the source give for `Cc1[nH]c2ccccc2c1N=Nc1cccc(C(=O)O)c1` here?
A: The Potency was active: 3.16 µM.

Q: With `Nc1ccc(Cl)c(-c2nc3ncccc3o2)c1` as the molecule, how does the Potency read?
A: The Potency was “inactive”.

Q: For `Cc1ccsc1C(=O)NCCc1ccco1`, which Potency is on record?
A: The Potency was inconclusive [activator, single point].

Q: Which Potency does the source give for `CC(Sc1ncn[nH]1)C(=O)Nc1ccc(Cl)cn1` (stereo not drawn) here?
A: Its Potency is “inactive”.

Q: For `N/C(=N\OC(=O)c1cccc([N+](=O)[O-])c1)c1ccccn1`, which Potency is on record?
A: The Potency was inconclusive [activator, partial curve].

Q: Which Potency does the source give for `CCCCCc1ccc(-c2cn(Cc3ccc(C(=O)c4ccccc4)cc3)nn2)cc1` here?
A: The Potency was inconclusive [activator, partial curve].

Q: Which Potency does the source give for `O=C(CCOc1ccccc1)N1CCN(c2ccc(O)cc2)CC1` here?
A: The Potency was inconclusive [activator, single point].

Q: With `CCOC(=O)c1cnn(-c2ccc(C(F)(F)F)cn2)c1N` as the molecule, how does the Potency read?
A: The Potency was inconclusive [activator, partial curve].

Q: Which Potency does the source give for `O=C(NC(=S)Nc1ccc(CN2CCOCC2)cc1)c1ccc2c(c1)OCCO2` here?
A: Its Potency is inconclusive [activator, single point].

Q: With `CCCOC1CCCN(C(=O)CCc2nnc(-c3ccc4c(c3)OCO4)o2)C1` (stereo not drawn) as the molecule, how does the Potency read?
A: The Potency was inconclusive [activator, partial curve].

Q: Which Potency does the source give for `COc1cccc(NC(=O)CCc2c(C)nn(-c3ccc(N4CCOCC4)nn3)c2C)c1` here?
A: The Potency was “inactive”.

Q: With `CC(=O)c1ccc(N2CCN(C(=O)c3ccco3)CC2)c(F)c1` as the molecule, how does the Potency read?
A: Its Potency is inconclusive [activator, partial curve].

Q: With `CCOC(=O)c1sc(Nc2nc3cc4c(cc3s2)OCO4)cc1C` as the molecule, how does the Potency read?
A: The Potency was inconclusive [activator, single point].

Q: Which Potency does the source give for `COc1ccc(-c2cc(C(=O)NN3CCOCC3)c3ccccc3n2)cc1OC` here?
A: The Potency was “inactive”.

Q: Which Potency does the source give for `Cc1cc(CN(C)C(=O)c2cc(COc3ccc(C)c(C)c3)on2)on1` here?
A: The Potency was active: 2.51 µM.

Q: Which Potency does the source give for `CCCNC(=O)c1onc(CSc2ccc(F)cc2)c1C(=O)NCCOC` here?
A: Its Potency is “inactive”.

Q: Which Potency does the source give for `CS(=O)(=O)c1nsc2nc(=O)c(/C=C3\C=Nc4ccccc43)c(N)n12` here?
A: The Potency was “inactive”.

Q: Which Potency does the source give for `O=C(NCCCNC(=O)c1ccco1)c1ccc(Cl)cc1` here?
A: The Potency was “inactive”.

Q: With `Cn1cc(C(=O)N/N=C/c2cccc([N+](=O)[O-])c2)c2ccccc21` as the molecule, how does the Potency read?
A: The Potency was inconclusive [activator, partial curve].

Q: Which Potency does the source give for `Cc1cc(/C=C2\SC(=S)N(Cc3ccco3)C2=O)c(C)n1-c1cccnc1` here?
A: The Potency was inconclusive [activator, single point].

Q: With `COc1ccc(CCN(Cc2cc3cccc(C)c3n3nnnc23)C(=O)c2ccncc2)cc1OC` as the molecule, how does the Potency read?
A: Its Potency is “inactive”.

Q: With `Cc1cnc(NC(=O)COc2ccc3c(c2)CCC3)s1` as the molecule, how does the Potency read?
A: The Potency was active: 0.562 µM.

Q: With `O=C(NC1CCCCCC1)c1cc2ccccc2oc1=O` as the molecule, how does the Potency read?
A: The Potency was active: 3.16 µM.

Q: With `Nc1ccccc1-c1nc2ccccc2s1` as the molecule, how does the Potency read?
A: Its Potency is inconclusive [activator, single point].

Q: Which Potency does the source give for `Cc1cc2ncc(-c3ccccc3)nc2cc1C` here?
A: Its Potency is active: 1.26 µM.

Q: For `CN(C(=O)c1cccnc1)c1nnc(-c2ccccn2)s1`, which Potency is on record?
A: Its Potency is inconclusive [activator, partial curve].

Q: With `COc1ccc2c(c1)CC/C(=C\c1ccc(C)o1)C2=O` as the molecule, how does the Potency read?
A: Its Potency is active: 2.51 µM.

Q: Which Potency does the source give for `O=C(CSc1nnc(NC(=O)c2ccccc2Cl)s1)NC1CC1` here?
A: The Potency was inconclusive [activator, partial curve].

Q: Which Potency does the source give for `COc1ccc(/C=C/C(=O)Nc2ccc(C34CC5CC(CC(O)(C5)C3)C4)cc2)cc1OC` here?
A: Its Potency is inconclusive [activator, partial curve].

Q: Which Potency does the source give for `N#C/C(=C\c1ccc(-c2nc3ccccc3s2)o1)C(N)=O` here?
A: The Potency was active: 3.16 µM.

Q: Which Potency does the source give for `O=C(NCCc1c[nH]c2ccccc12)c1ccc(F)cc1F` here?
A: The Potency was inconclusive [activator, partial curve].

Q: Which Potency does the source give for `COc1ccc(NC(=O)CSc2ccccc2)c([N+](=O)[O-])c1` here?
A: The Potency was inconclusive [activator, partial curve].

Q: For `C=CCOCCN(CC)CC`, which Potency is on record?
A: Its Potency is “inactive”.

Q: Which Potency does the source give for `O=C(CCS(=O)(=O)c1ccccc1)Nc1ccc2c(c1)OCO2` here?
A: Its Potency is inconclusive [activator, partial curve].

Q: For `CSCc1nc2scc(-c3ccccc3)c2c(=O)[nH]1`, which Potency is on record?
A: Its Potency is “inactive”.

Q: With `COC(=O)c1ccc(N2CCN(c3ccccc3)CC2)c(N)c1` as the molecule, how does the Potency read?
A: The Potency was inconclusive [activator, single point].

Q: With `Cc1ccc2sc(NNC(=O)c3cc(-c4cccs4)nc4ccccc34)nc2c1C` as the molecule, how does the Potency read?
A: The Potency was “inactive”.

Q: With `O=C(N/N=C/c1cc(Br)c(Br)o1)c1ccc2c(c1)OCCO2` as the molecule, how does the Potency read?
A: Its Potency is inconclusive [activator, partial curve].

Q: With `Cc1cccc(NCc2nc3ccccc3n2C)c1` as the molecule, how does the Potency read?
A: Its Potency is inconclusive [activator, partial curve].

Q: With `COC(=O)c1c(C)[nH]c(C(=O)OCc2ccc(F)cc2)c1C` as the molecule, how does the Potency read?
A: The Potency was active: 3.55 µM.

Q: For `CCCOc1ccc(-c2csc(N)n2)cc1[N+](=O)[O-]`, which Potency is on record?
A: Its Potency is inconclusive [activator, single point].

Q: For `C/C(N)=C(/C#N)C(=O)CSc1nnc(Nc2cccc(C)c2C)s1`, which Potency is on record?
A: The Potency was inconclusive [activator, single point].

Q: For `Cn1c(/C=C/c2cccc(Br)c2)nc2ccccc2c1=O`, which Potency is on record?
A: Its Potency is “inactive”.

Q: Which Potency does the source give for `COc1ccc(CCN2CC(C(=O)NCCCn3nc(C)cc3C)CCC2=O)cc1` (stereo not drawn) here?
A: The Potency was “inactive”.

Q: For `O=C(NC(=S)Nc1ccc(N2CCOCC2)c(Cl)c1)c1cccs1`, which Potency is on record?
A: Its Potency is inconclusive [activator, single point].

Q: With `N#Cc1cnn(-c2nc3sc4c(c3c(=O)[nH]2)CCCC4)c1N` as the molecule, how does the Potency read?
A: The Potency was “inactive”.

Q: For `O=C1NC2(CCC3(CC2)OCCO3)NN1c1ccc(Cl)cc1`, which Potency is on record?
A: The Potency was “inactive”.

Q: With `Clc1ccc(CSc2nnc(NC3=NCCCCC3)s2)cc1` as the molecule, how does the Potency read?
A: Its Potency is “inactive”.
